Source: PubChem BioAssay AID651820 (National Center for Advancing Translational Sciences (NCATS), 2012)
Among all 340,000 compounds or so, about 12,000 (3.5%) were called active. This list was built around the results that the source calls inconclusive (neither active nor inactive); the mix of calls is not that of the screen. Calls follow the shape of the dose curve; as a rule, active = well fitted inhibition curve with a large enough effect; inconclusive = small, poorly fitted or top-dose-only effect, or another doubt; inactive = no such curve, though single readings can be large or run the other way. Potencies of inconclusive entries are left out as doubtful fits.
% is scaled to controls: 0 for no effect and ±100 for the full control effect; potency is read from the fitted curve at half-maximal effect; tags tell the direction and shape of the fitted curve.

Assay: qHTS Assay for Inhibitors of Hepatitis C Virus (HCV)
Conditions: Huh7.5.1 HCVcc-Cre (HCVcc is cell-culture hepatitis C virus) infection, luciferase reporter, 44 h; activity change, negative = inhibition: at 41.8 µM (top of the series)
Outline: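 Antiviral activity was scored by luciferase reporter output from cells infected with HCVcc-Cre (~0.5 moi) in presence of compound, 44 h infection period, cells seeded 1,000/well 4 h prior.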
With `COCc1c(C(=O)Nc2ccc(Cl)cc2F)oc2ccccc12` the Potency was “inactive”.
For `COc1ccc2cc3c(N)nn(C(=O)Cc4ccccc4OC)c3nc2c1`, the Potency was inconclusive [inhibitor, single point].
With `CCOC(=O)c1ccc(S(=O)(=O)N2CCN(C/C=C/c3ccccc3)CC2)cc1` the Potency was inconclusive [inhibitor, single point].
In the case of `CNC(=O)COC(=O)/C=C/c1cn(-c2ccccc2)nc1-c1ccc(C)o1`, the Potency was “inactive”.
In the case of `COc1ccc(CNc2nc(-c3ccccc3)nn2C(=O)c2cccs2)cc1`, the Potency was inconclusive [inhibitor, single point].
With `CC(C)=CCC/C(C)=C/CNC(=O)C[C@H]1C[C@H](C(=O)N2CCOCC2)[C@@]2(CCC3CCCC3)c3[nH]c4cc(-c5ccco5)ccc4c3CCN2C1=O` the Potency was “inactive”.
With `O=C(COc1cccc(Br)c1)Nc1ccc(N2CCOCC2)cc1N1CCOCC1` the Potency was inconclusive [inhibitor, partial curve].
With `COc1cc(C(=O)Nc2cccc(S(=O)(=O)NCc3ccco3)c2)cc(OC)c1OC` the Potency was inconclusive [inhibitor, full curve].
In the case of `COC(=O)C1=C(C)N(C)C(C)=C(C(=O)OC)C1c1ccsc1`, the Potency was “inactive”.
For `COCCN(C(=O)COC(=O)CSc1ccc(Cl)cc1)c1c(N)n(Cc2ccccc2)c(=O)[nH]c1=O`, the activity change, negative = inhibition was inactive: 6.42% [at 8.37 µM].
For `CCc1ccc2[nH]c(=O)c(CN(Cc3ccco3)C(=S)NCC3CCCO3)cc2c1` (centres undefined), the Potency was inconclusive [inhibitor, single point].
For `O=C(Nc1ccc(N2CCN(c3ncccc3C(F)(F)F)CC2)nc1)c1cccs1`, the Potency was active: 11.2 µM.
In the case of `CCc1c(Cl)nc(N)nc1Nc1ccccc1C`, the Potency was inconclusive [inhibitor, single point].
For `Cc1cc(C)cc(N=Cc2ccc([N+](=O)[O-])s2)c1`, the Potency was inconclusive [inhibitor, single point].
In the case of `CCC(=O)Nc1ccc(C(=O)NCCCn2ccnc2)cc1`, the Potency was inconclusive [inhibitor, full curve, poor fit].
In the case of `CCOC(=O)C1=C(COC(=O)Cc2ccc(Cl)cc2)NC(=O)NC1C` (centres undefined), the Potency was “inactive”.
For `Cc1cc2ncn(C(=O)c3cc(-c4ccccc4)nc4ccccc34)c2cc1C`, the Potency was inconclusive [inhibitor, partial curve].
With `C/C(=N\Nc1cccc([N+](=O)[O-])c1)c1ccccc1O` the Potency was inconclusive [inhibitor, single point].
In the case of `Cc1cc2oc(=O)cc(CN3CCN(S(=O)(=O)c4cccs4)CC3)c2cc1C`, the Potency was inconclusive [inhibitor, single point].
With `Cc1cc(=O)oc2cc(OCC(=O)Nc3ccc(N4CCC(C)CC4)cc3)ccc12` the Potency was inconclusive [inhibitor, partial curve].
With `COc1ccc(Cl)cc1C(=O)N(Cc1nc(-c2cccc(C)c2)no1)C(C)C` the Potency was inconclusive [inhibitor, partial curve].
In the case of `COc1ccc(CN2CC[C@H]3C=CCc4cccc(c43)C2)cc1`, the Potency was inconclusive [inhibitor, single point].
With `O=C1CC(c2ccccc2)CC(O)=C1C=NCCN1CCN(C(=O)Nc2ccccc2)CC1` (centres undefined) the Potency was “inactive”.
With `CC1=NC(C)Cc2ccccc21` (centres undefined) the Potency was inconclusive [inhibitor, single point].
In the case of `CC1(C)Cc2c(ccc3ccccc23)/C(=C/C(=O)N2CCCCC2)N1`, the Potency was inconclusive [inhibitor, single point].
For `COc1ccccc1CNC(=O)c1ccc(Cl)c(S(=O)(=O)N2CCCC2)c1`, the Potency was inconclusive [inhibitor, single point].
For `COc1ccc(NC(=O)c2cc(-c3ccccc3Cl)on2)cc1OC`, the Potency was “inactive”.
For `Cc1nc2ccc(NC(=O)c3ccc(Cl)c(NC(=O)c4cccs4)c3)cc2s1`, the Potency was active: 10 µM.
With `COc1ccccc1Nc1c2c(nc3ccc(N)cc13)CCCC2` the Potency was inconclusive [inhibitor, partial curve].
In the case of `Cc1nn(Cc2cccc(C(=O)Nc3ccn(Cc4c(F)c(F)cc(F)c4F)n3)c2)c(C)c1[N+](=O)[O-]`, the Potency was inconclusive [inhibitor, partial curve].
In the case of `CC(C)Sc1cc(N2CCOCC2)nc(-c2ccccc2)n1`, the Potency was active: 12.6 µM.
In the case of `c1ccc2nc(N3CCNCC3)ccc2c1`, the Potency was inconclusive [inhibitor, single point].
In the case of `CC1CN(C(=O)c2cc(S(=O)(=O)N3CCN(c4ccccc4)CC3)ccc2Cl)CC(C)O1` (centres undefined), the Potency was inconclusive [inhibitor, partial curve].
In the case of `CCc1cccc(OCCn2ccnc2)c1`, the Potency was inconclusive [inhibitor, single point].
With `CCOC(=O)C1CCN(C(=O)c2cc(-c3ccncc3)nc3ccccc23)CC1` the Potency was inconclusive [inhibitor, single point].
In the case of `Cc1ccc(NC(=O)Cn2c(O)c(N=NC(=O)c3cc4ccccc4cc3O)c3ccccc32)cc1`, the Potency was inconclusive [inhibitor, single point].
With `COCCn1c(-c2ccccc2)csc1=Nc1cccnc1` the Potency was active: 8.91 µM.
With `O=C(NC(=S)Nc1ccc(S(=O)(=O)N2CCCC2)cc1)C1CC1` the Potency was inconclusive [inhibitor, single point].
In the case of `CCOCCCNC(=O)C1CCCN(S(=O)(=O)c2cccc3nsnc23)C1` (centres undefined), the Potency was “inactive”.
For `O=C(COc1ccc(F)cc1)Nc1nnc(C2CC2)s1`, the Potency was inconclusive [inhibitor, single point].
With `Cc1c(Cl)c(C(=O)NNC(=S)NCc2ccco2)nn1C` the Potency was “inactive”.
For `Cc1cccc(NC(=O)C(NS(=O)(=O)c2ccc3c(c2)CCC(=O)N3)c2ccccc2)n1` (centres undefined), the Potency was “inactive”.
In the case of `CN1/C(=C\C(=S)NC(=O)c2cccc(Br)c2)C(C)(C)c2ccccc21`, the Potency was active: 11.2 µM.
For `COc1ccccc1C(=O)NCCC(=O)NNC(=O)Cn1ccc(C(F)(F)F)n1`, the Potency was inconclusive [inhibitor, single point].
